This note sets out measurements from article PMC5175582, “The Functions of the A1A2A3 Domains in Von Willebrand Factor Include Multimerin 1 Binding” (Thrombosis and Haemostasis, 2016).

The target in this experiment is T1, Biotin-labelled MMRN1 (human, UniProt Q13201 20-1228, biotin (sites not given)).
T1 construct: multimerin 1 (MMRN1), human; recombinant; Same protein as m1, biotin-labelled for SPR; Homopolymer; also called MMRN1-coated sensor chips; biotin-labelled MMRN1 (immobilised on streptavidin-coated sensor chips)
T1 sequence (looked up): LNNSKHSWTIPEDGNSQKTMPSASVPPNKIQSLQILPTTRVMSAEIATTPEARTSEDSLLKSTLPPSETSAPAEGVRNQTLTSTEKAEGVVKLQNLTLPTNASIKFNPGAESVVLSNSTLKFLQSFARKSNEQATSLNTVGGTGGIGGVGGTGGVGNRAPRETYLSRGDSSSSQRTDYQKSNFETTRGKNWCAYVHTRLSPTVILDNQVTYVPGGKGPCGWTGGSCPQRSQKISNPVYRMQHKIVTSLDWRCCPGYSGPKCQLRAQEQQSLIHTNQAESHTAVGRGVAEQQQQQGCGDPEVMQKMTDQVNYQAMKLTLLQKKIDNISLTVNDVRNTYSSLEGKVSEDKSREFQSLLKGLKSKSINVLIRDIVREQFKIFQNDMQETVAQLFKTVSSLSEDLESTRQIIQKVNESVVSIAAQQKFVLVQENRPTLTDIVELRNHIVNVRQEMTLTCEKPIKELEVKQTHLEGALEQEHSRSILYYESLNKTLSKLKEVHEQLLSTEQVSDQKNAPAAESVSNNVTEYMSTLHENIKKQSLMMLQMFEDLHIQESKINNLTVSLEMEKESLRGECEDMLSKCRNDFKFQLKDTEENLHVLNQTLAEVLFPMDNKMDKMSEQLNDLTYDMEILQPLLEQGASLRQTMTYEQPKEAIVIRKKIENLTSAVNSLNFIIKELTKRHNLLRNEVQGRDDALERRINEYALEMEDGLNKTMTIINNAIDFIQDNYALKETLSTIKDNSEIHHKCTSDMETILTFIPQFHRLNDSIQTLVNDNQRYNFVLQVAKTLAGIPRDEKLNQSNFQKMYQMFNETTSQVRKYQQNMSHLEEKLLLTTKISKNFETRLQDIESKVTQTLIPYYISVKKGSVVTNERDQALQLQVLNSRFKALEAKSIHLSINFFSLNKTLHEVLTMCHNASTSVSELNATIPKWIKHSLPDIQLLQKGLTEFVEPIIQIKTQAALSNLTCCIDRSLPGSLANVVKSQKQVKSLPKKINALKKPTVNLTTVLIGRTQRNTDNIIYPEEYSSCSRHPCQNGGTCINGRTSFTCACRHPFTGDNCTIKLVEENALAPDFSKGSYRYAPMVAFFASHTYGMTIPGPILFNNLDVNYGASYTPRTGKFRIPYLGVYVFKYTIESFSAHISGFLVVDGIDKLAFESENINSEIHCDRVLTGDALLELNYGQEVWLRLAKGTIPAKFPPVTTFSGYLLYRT
Nature of the experiment: SPR; BIAcoreX; biotin-labelled MMRN1 immobilised on streptavidin-coated sensor chips (500–1000 RU); VWF A domains perfused in HEPES-Tyrode running buffer with 0.005 % P-20; two-state conformational model for A1A2A3 and A1, 1:1 Langmuir model for A3; apparent affinity. Conditions: both partners purified.

B1: Monomeric VWF A3 domain (domain or fragment)
chain: not shown
As for B1, the Kd is 229 nM, the koff came to 0.0018 s⁻¹ and the kon stood at 8800 M⁻¹ s⁻¹.

B2: Monomeric VWF A1A2A3 (domain or fragment)
chain: not shown
For B2, the Kd is 2 nM.
